{
  "source": "PubChem BioAssay (NCATS)",
  "note": "Values joined by “and” are separate entries in the source; they are usually repeats but may differ in a detail not shown here. Identical values can stand only once. This list was built around the results that the source calls inconclusive (neither active nor inactive); the mix of calls is not that of the screen. Potencies of inconclusive entries are doubtful fits and often do not repeat. Active and inactive are the calls of the source. The call rests on the fitted dose curve; in most records, active means well fitted inhibition curve with a large enough effect; inconclusive means small, poorly fitted or top-dose-only effect; inactive means no such curve, though single readings can be large or run the other way. Potency means the concentration at half of the fitted maximal effect; tags describe the fitted curve by direction and shape.",
  "data": [
    {"assay": "qHTS to identify inhibitors of the type 1 interferon - major histocompatibility complex class I in skeletal muscle: primary screen against the NCATS Mechanism Interrogation Plate v5.0 (MIPE) Libary (AID 1347411); further: nearly all actives have a fitted effect of over 65% in size;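 on activity change, negative = inhibition: plate controls were vehicle for no effect and reference inhibitor for full effect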", "details": "iHSKM cells + IFN-b, HiBiT-tagged MHC-I luminescence, 24 h; activity change, negative = inhibition: at 45.8 µM (top of the series)", "in_short": "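HLA-B HiBit myoblasts, dexamethasone-free medium + 4 ng/ml IFN-b, 24 h compound, 11-pt 1:3 from 46 uM final. Readout: Nano-Glo HiBiT lytic luminescence after 10 min lysis, RT.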", "values": [
      {"compound": "CS(=O)(=O)Nc1ccc([N+](=O)[O-])cc1Oc1ccccc1", "Potency": "inconclusive: 20.8 µM [inhibitor, partial curve, poor fit]"},
      {"compound": "COc1cc2c(c(OC)c1OC)-c1ccc(OC)c(=O)cc1[C@@H](NC(C)=O)CC2", "Potency": "inconclusive: 0.0466 µM [inhibitor, full curve, poor fit]"},
      {"compound": "COc1ccc(-c2ccc3cc(C(=O)O)ccc3c2)cc1C12CC3CC(CC(C3)C1)C2", "activity change, negative = inhibition": "inactive: -10.2%"},
      {"compound": "Cc1ccc(Nc2nccc(N(C)c3ccc4c(C)n(C)nc4c3)n2)cc1S(N)(=O)=O", "Potency": "inconclusive: 13.1 µM [inhibitor, partial curve]"},
      {"compound": "CCCCc1oc2ccc(NS(C)(=O)=O)cc2c1C(=O)c1ccc(OCCCN(CCCC)CCCC)cc1", "Potency": "inconclusive: 23.4 µM [inhibitor, partial curve, poor fit]"},
      {"compound": "CCC(c1ccc(O)cc1)C(CC)c1ccc(O)cc1", "note": "(centres undefined)", "activity change, negative = inhibition": "inactive: -12.6%"},
      {"compound": "NC(=NCc1ccccc1)NC(=O)c1nc(Cl)c(N)nc1N", "Potency": "inconclusive: 1.31 µM [inhibitor, full curve, poor fit]"},
      {"compound": "CN[C@@H]1CN(c2ccc3c(=O)c(C(=O)O)cn(-c4nccs4)c3n2)C[C@@H]1OC", "Potency": "active: 5.09 µM"},
      {"compound": "NC(=O)N1CCC(CC(=O)N2CCC([C@H]3c4ncc(Br)cc4CCc4cc(Cl)cc(Br)c43)CC2)CC1", "Potency": "inconclusive: 33 µM [inhibitor, partial curve, poor fit]"},
      {"compound": "CSc1cccc(Nc2ncc3cc(-c4c(Cl)cccc4Cl)c(=O)n(C)c3n2)c1", "Potency": "inconclusive: 1.04 µM [inhibitor, full curve]"},
      {"compound": "CCCCS(=N)(=O)CCC(N)C(=O)O", "note": "(centres undefined)", "activity change, negative = inhibition": "inactive: 6.25% [at 74.1 µM]"},
      {"compound": "CCCCC(=O)O[C@]1(C(=O)CO)[C@@H](C)C[C@H]2[C@@H]3CCC4=CC(=O)C=C[C@]4(C)[C@@]3(F)[C@@H](O)C[C@@]21C", "activity change, negative = inhibition": "inactive: -11.6%"},
      {"compound": "COC(=O)Nc1nc2ccc(C(=O)c3ccccc3)cc2[nH]1", "Potency": "inconclusive: 2.34 µM [inhibitor, full curve]"},
      {"compound": "CCCCCCCCCCCCCCCC(=O)O[C@H]1[C@@H](O)[C@@H](O)[C@@H]([C@H](NC(=O)[C@@H]2C[C@@H](CCC)CN2C)[C@H](C)Cl)O[C@@H]1SC", "activity change, negative = inhibition": "inactive: 5.8%"},
      {"compound": "CCN(CC)CCOc1ccc(Nc2ncc3cc(-c4c(Cl)cccc4Cl)c(=O)n(C)c3n2)cc1", "Potency": "inconclusive: 11.7 µM [inhibitor, partial curve, poor fit]"}
    ]},
    {"assay": "Primary qHTS for inhibitors of La Crosse Virus (LACV) - induced cell death in SH-SY5Y cells (AID 1508616);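 on activity change: top concentration of the series differs between compounds; 0% = infected DMSO wells and 100% = uninfected DMSO wells; higher means more rescue of cells from virus-induced death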", "details": "SH-SY5Y LACV cytopathicity rescue, ATP luminescence, 6 d; activity change: at the top concentration", "in_short": "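Cytopathicity rescue screen: compounds pinned onto SH-SY5Y cells, which are then infected with LACV (MOI 0.01) and held 6 days at 37C. Percent activity is scaled between infected DMSO control and uninfected DMSO control.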", "values": [
      {"compound": "Nc1c2c(nc3ccccc13)CCCC2", "Potency": "inactive"},
      {"compound": "C=CC(=O)Nc1cc2c(Nc3ccc(F)c(Cl)c3)ncnc2cc1OCCCN1CCOCC1", "Potency": "inconclusive: 1 µM [inhibitor, partial curve, poor fit]"},
      {"compound": "C=CCc1cccc(C=NNC(=O)CN2CCN(Cc3ccccc3)CC2)c1O", "Potency": "inconclusive: 3.16 µM [inhibitor, single point]"},
      {"compound": "COc1cc2c(N3CCN(C(=O)Nc4ccc(OC(C)C)cc4)CC3)ncnc2cc1OCCCN1CCCCC1", "Potency": "inconclusive: 0.316 µM [inhibitor, partial curve, poor fit]"},
      {"compound": "Fc1ccc([C@@H]2CCNC[C@H]2COc2ccc3c(c2)OCO3)cc1", "Potency": "inconclusive: 3.98 µM [inhibitor, partial curve, poor fit]"},
      {"compound": "COC(=O)Nc1nc2ccc(C(=O)c3ccccc3)cc2[nH]1", "Potency": "inconclusive: 0.0316 µM [inhibitor, full curve, poor fit]"},
      {"compound": "Cc1ccc(S(=O)(=O)N[C@@H](Cc2ccccc2)C(=O)CCl)cc1", "Potency": "inconclusive: 2.51 µM [inhibitor, partial curve, poor fit]"}
    ]},
    {"assay": "Primary qHTS for small molecule stabilizers of the endoplasmic reticulum resident proteome: Secreted ER Calcium Modulated Protein (SERCaMP) assay (AID 1508630); on activity change, negative = inhibition: on the % scale 0 is the no-effect control and ±100 the full control effect", "details": "SH-SY5Y GLuc-SERCaMP (Gaussia luciferase released on ER calcium loss) secretion, thapsigargin, luminescence; activity change, negative = inhibition: at 38.4 µM (top of the series)", "in_short": "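The SH-SY5Y reporter protocol was run at 3 concentrations up to 38.3 uM (primary) or 11 concentrations (follow-up): 16 h compound, 100 nM thapsigargin for 4 h, then extracellular luciferase luminescence.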", "values": [
      {"compound": "CS(=O)(=O)Nc1ccc([N+](=O)[O-])cc1Oc1ccccc1", "Potency": "inconclusive: 35.5 µM [inhibitor, partial curve] and inconclusive: 1.68 µM [inhibitor, full curve, poor fit]"},
      {"compound": "Cc1ccc(Nc2nccc(N(C)c3ccc4c(C)n(C)nc4c3)n2)cc1S(N)(=O)=O", "Potency": "inconclusive: 28.2 µM [inhibitor, single point]"},
      {"compound": "COC(=O)C1=C(C)NC(C)=C(C(=O)OC(C)C)C1c1cccc2nonc12", "note": "(centres undefined)", "Potency": "inconclusive: 10 µM [inhibitor, single point]"},
      {"compound": "CC(c1cc2ccccc2s1)N(O)C(N)=O", "note": "(centres undefined)", "Potency": "inconclusive: 1000 µM [inhibitor, full curve]"},
      {"compound": "Cn1c(=O)c2c(ncn2CC(O)CO)n(C)c1=O", "note": "(centres undefined)", "Potency": "inconclusive: 39.8 µM [inhibitor, partial curve]"},
      {"compound": "COc1nc(C)nc(Cl)c1NC1=NCCN1", "Potency": "inconclusive: 2.24 µM [inhibitor, full curve, poor fit] and inconclusive: 6.7 nM [inhibitor, full curve, poor fit]"},
      {"compound": "CCCCc1oc2ccc(NS(C)(=O)=O)cc2c1C(=O)c1ccc(OCCCN(CCCC)CCCC)cc1", "Potency": "inconclusive: 8.91 µM [inhibitor, partial curve, poor fit]"},
      {"compound": "NC(=NCc1ccccc1)NC(=O)c1nc(Cl)c(N)nc1N", "Potency": "inconclusive: 25.1 µM [inhibitor, single point]"},
      {"compound": "C=CCc1cccc(C=NNC(=O)CN2CCN(Cc3ccccc3)CC2)c1O", "activity change, negative = inhibition": "inactive: -82.6%"},
      {"compound": "COc1cc2c(N3CCN(C(=O)Nc4ccc(OC(C)C)cc4)CC3)ncnc2cc1OCCCN1CCCCC1", "Potency": "inactive"},
      {"compound": "Fc1ccc([C@@H]2CCNC[C@H]2COc2ccc3c(c2)OCO3)cc1", "Potency": "inconclusive: 20 µM [inhibitor, single point] and inconclusive: 168 nM [inhibitor, full curve, poor fit]"},
      {"compound": "COc1cc(NCc2ccc3nc(N)nc(N)c3c2C)cc(OC)c1OC", "Potency": "inconclusive: 15.8 µM [inhibitor, single point]"},
      {"compound": "CCCCS(=N)(=O)CCC(N)C(=O)O", "note": "(centres undefined)", "Potency": "inconclusive: 0.0094 µM [inhibitor, full curve, poor fit]"},
      {"compound": "COc1cc(Nc2c(C#N)cnc3cc(OCCCN4CCN(C)CC4)c(OC)cc23)c(Cl)cc1Cl", "Potency": "inactive"},
      {"compound": "COC(=O)Nc1nc2ccc(C(=O)c3ccccc3)cc2[nH]1", "Potency": "inactive"},
      {"compound": "O=C(c1ccc(F)cc1)C1CCN(CCn2c(=O)[nH]c3ccccc3c2=O)CC1", "Potency": "inconclusive: 11.2 µM [inhibitor, single point] and inconclusive: 5.62 µM [inhibitor, partial curve, poor fit]"},
      {"compound": "COc1cc2nc(N3CCN(C(=O)C4COc5ccccc5O4)CC3)nc(N)c2cc1OC", "note": "(centres undefined)", "Potency": "inactive"}
    ]}
  ]
}
